Molecules are shown by their SMILES. About 14,000 (4.5%) of roughly 310,000 compounds showed an effect of 50% or more. Effects have a minus sign here. The list shows a part of the results.
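Note: peak tail current of the secondary pulse compared with the same well before compound.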

The target of this test is human ether-à-go-go-related gene (hERG) potassium channel (human, UniProt Q12809). In words: primary screen, population patch clamp on CHO cells stably expressing hERG.
human ether-à-go-go-related gene (hERG) potassium channel, sequence (Q12809 whole entry, looked up): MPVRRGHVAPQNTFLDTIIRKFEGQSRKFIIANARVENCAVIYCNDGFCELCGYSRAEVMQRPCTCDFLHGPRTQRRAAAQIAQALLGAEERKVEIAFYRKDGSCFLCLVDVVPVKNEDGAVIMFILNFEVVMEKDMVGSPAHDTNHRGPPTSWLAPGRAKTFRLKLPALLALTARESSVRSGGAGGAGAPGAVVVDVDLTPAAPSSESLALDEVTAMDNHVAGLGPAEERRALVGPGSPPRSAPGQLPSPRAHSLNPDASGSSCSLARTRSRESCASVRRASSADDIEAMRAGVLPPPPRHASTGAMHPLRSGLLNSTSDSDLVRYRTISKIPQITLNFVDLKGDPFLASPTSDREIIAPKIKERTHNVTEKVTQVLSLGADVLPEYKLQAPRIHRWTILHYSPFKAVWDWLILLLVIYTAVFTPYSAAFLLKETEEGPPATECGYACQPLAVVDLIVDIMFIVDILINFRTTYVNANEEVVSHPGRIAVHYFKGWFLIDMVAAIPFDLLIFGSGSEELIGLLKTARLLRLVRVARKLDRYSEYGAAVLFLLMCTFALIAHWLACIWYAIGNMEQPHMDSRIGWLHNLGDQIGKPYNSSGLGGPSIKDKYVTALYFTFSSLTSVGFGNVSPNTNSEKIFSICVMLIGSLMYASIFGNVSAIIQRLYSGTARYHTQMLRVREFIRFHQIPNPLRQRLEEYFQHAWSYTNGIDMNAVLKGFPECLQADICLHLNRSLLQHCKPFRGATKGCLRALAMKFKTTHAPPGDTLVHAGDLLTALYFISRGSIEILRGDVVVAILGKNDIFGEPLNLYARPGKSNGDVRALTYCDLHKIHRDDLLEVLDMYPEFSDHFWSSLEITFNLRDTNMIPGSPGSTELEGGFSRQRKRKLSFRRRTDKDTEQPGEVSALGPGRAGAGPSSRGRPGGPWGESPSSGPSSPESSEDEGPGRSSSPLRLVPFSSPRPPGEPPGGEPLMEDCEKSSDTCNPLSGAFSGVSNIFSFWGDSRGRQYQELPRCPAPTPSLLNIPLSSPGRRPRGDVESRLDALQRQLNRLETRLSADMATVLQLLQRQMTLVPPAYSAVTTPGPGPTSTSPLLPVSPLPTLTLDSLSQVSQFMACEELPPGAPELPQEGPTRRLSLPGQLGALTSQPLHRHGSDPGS
For `CC(C)C[C@H](NC(=O)OC(C)(C)C)C(=O)N/N=C/c1ccc2nccnc2c1`, the “hERG current change (%, negative = inhibition) at 10uM” value was -4.45%.

As for `NS(=O)(=O)c1ccc2c(c1)C1C=CCC1C(C1CC=CCC1)N2` (stereo not drawn), the “hERG current change (%, negative = inhibition) at 10uM” value is on record as 16.1%. To `Cc1cccnc1NC(=O)c1cccc(S(=O)(=O)N2CCCC2)c1` belongs -8.13%.

Regarding `COc1cc(NC(=O)COC(=O)c2ccccc2F)cc(OC)c1`, the “hERG current change (%, negative = inhibition) at 10uM” value came out at 9.49%. To `Cc1ccc(S(=O)(=O)NNC(=O)c2cc([N+](=O)[O-])c(C)c([N+](=O)[O-])c2)cc1` belongs 10.2%; to `CCC(C(=O)c1ccccc1)P(=O)(NN)c1ccccc1` (stereo not drawn), 13.3%; to `O=C(Nc1nc(-c2ccncc2)cs1)c1ccc(F)cc1`, 11.5%. To `CN(C(=O)Cn1cnc([N+](=O)[O-])n1)C1CCCCC1` belongs 26.4%; to `COC(=O)c1sc(NC(=S)NC(=O)c2ccccc2)nc1C`, 0.156%. To `Cn1c(Cc2ccccc2)nnc1SCC(=O)NC1CCCCC1` belongs 12%; to `CC1(C)S[C@@H]2[C@H](NC(=O)[C@H](N)c3ccccc3)C(=O)N2[C@H]1C(=O)OC1OC(=O)c2ccccc21.Cl` (stereo partly drawn), -2.16%; to `CCOC(=O)CN1CC23C=CC(O2)C(C(=O)NCc2cccs2)C3C1=O` (stereo not drawn), 6.91%. Take `CCN1C(=O)c2cccc3c(S(=O)(=O)Nc4ccccc4OC)ccc1c23`: the “hERG current change (%, negative = inhibition) at 10uM” value is given as -4.84%.

As for `COc1ccccc1-n1c(SCC(=O)NC(C)(C)C)nnc1-c1ccco1`, the “hERG current change (%, negative = inhibition) at 10uM” value is -8.41%. Turning to `COc1ccc(C(=O)NCCc2nc3cc([N+](=O)[O-])ccc3n2C)cc1`, the “hERG current change (%, negative = inhibition) at 10uM” value is listed as -39.9%.

Take `COc1cc(C)ccc1OCCOc1ccccc1Cl`: the “hERG current change (%, negative = inhibition) at 10uM” value is reported as 18.7%. As to `CCc1nnc(NS(=O)(=O)c2ccc(NC(=S)NC(=O)/C=C/c3ccc([N+](=O)[O-])cc3)cc2)s1`, the “hERG current change (%, negative = inhibition) at 10uM” value stood at 32.3%. To `N/C(=N\OC(=O)Cc1cccc2ccccc12)c1ccccn1` belongs 10.1%; to `Nn1c(-c2cccc([N+](=O)[O-])c2)nc2ccccc2c1=O`, 5.63%; to `CCOC(=O)N1CCN(C(=O)C(C)c2ccc([N+](=O)[O-])cc2)CC1` (stereo not drawn), -10.1%. To `Cc1c(Cl)cccc1NC(=O)NCc1ccc(F)cc1` belongs 20%. On to `COc1cc(C)nn1-c1ccc(Cl)cc1`, for which the “hERG current change (%, negative = inhibition) at 10uM” value is 7.72%. Regarding `COc1ccc(S(=O)(=O)NCc2cccnc2)cc1C(=O)NC1CCCCC1`, the “hERG current change (%, negative = inhibition) at 10uM” value was determined as 4.41%.

Turning to `Cc1ccc(S(=O)(=O)NC(=O)c2cc(C)n(-c3ccccc3)c2C)cc1`, the “hERG current change (%, negative = inhibition) at 10uM” value was -0.15%.

On to `COc1cccc(Cn2c(-c3cccs3)noc2=O)c1`, for which the “hERG current change (%, negative = inhibition) at 10uM” value is -27.1%. To `CCc1cccc(NC(=O)c2cccc3c2C(=O)N(CC2CCCO2)C3)c1` (stereo not drawn) belongs -72.2%; to `C/C(=N\NC(=S)NC(C)C)c1ccc(C(C)(C)C)cc1`, 11.1%.

Regarding `CCn1c(SCC(N)=O)nc2sc3c(c2c1=O)CCCC3`, the “hERG current change (%, negative = inhibition) at 10uM” value came to 1.24%. Take `COc1ccccc1NC(=O)c1cc(=O)[nH]c2ccccc12`: the “hERG current change (%, negative = inhibition) at 10uM” value is recorded as 33.4%. As for `CC(=O)c1c(C)[nH]c(C(=O)N2c3ccccc3CC2C)c1C` (stereo not drawn), the “hERG current change (%, negative = inhibition) at 10uM” value turned out to be 5.33%.

As to `COC(=O)c1ccccc1SC1CC(=O)N(c2ccccc2)C1=O` (stereo not drawn), the “hERG current change (%, negative = inhibition) at 10uM” value came out at 7.24%. To `O=C(O)c1ccnc(Cl)c1` belongs 3.44%; to `Cl.O=C(O)CSc1nc(-c2ccccc2)c(-c2ccccc2)[nH]1`, -3.18%; to `Cc1cc(Sc2nc(NC(C)(C)C)nc(N3CCOCC3)n2)nc(Cl)n1`, 15.1%.

Consider `COc1ccc(OC)c(NC(=O)c2ccccc2SC)c1`, for which the “hERG current change (%, negative = inhibition) at 10uM” value is -40.2%.

For the compound `Nc1c(Nc2ccccc2)c2ccccc2oc1=O`, the “hERG current change (%, negative = inhibition) at 10uM” value is on record as -4.79%. To `CCn1cc([N+](=O)[O-])c(C(=O)N2N=C(c3ccc(Cl)c(Cl)c3)CC2c2ccccc2O)n1` (stereo not drawn) belongs 23.4%. To `O=C1C=C(c2ccc3[nH]ccc3c2)CCC1` belongs 16.3%; to `O=C(CSc1nc2cccnc2n1Cc1ccccc1)N1CCCC1`, -63.7%; to `CCCSc1nc(C)c(CC(=O)O)c(=O)[nH]1`, 9.31%. For `Cc1cc(C(=O)N/N=C/c2ccc(-c3cccc(Cl)c3)o2)n[nH]1`, the “hERG current change (%, negative = inhibition) at 10uM” value worked out at 11.3%. To `COc1ccc2sc(-c3ccc(N(C)C)cc3)c(C#CC(C)(C)O)c2c1` belongs 9.76%. For `CCOc1ccc(-n2ccnc2SCC(=O)Nc2cc(C)on2)cc1`, the “hERG current change (%, negative = inhibition) at 10uM” value was determined as 2.57%. To `Cc1ccc(-n2ncc3c2CC(C)(C)CC3NC(=O)CCc2c(C)noc2C)cc1` (stereo not drawn) belongs -32.3%; to `CCNC(=O)C(=O)Nc1ccc(OC)c(Cl)c1`, 14.4%.

The values are drawn from paper PMC4336329 (PLoS ONE, 2015).
